PubChem BioAssay AID485344 (National Center for Advancing Translational Sciences (NCATS), 2010)
About 6,900 (2%) of roughly 340,000 compounds were called active. Cut-off read from the data, not from the text of the source: active = inhibition above about 30%; inactive = below that, where a call was filed. Only a part is listed here, and it is no random draw. Where no call is shown, the source filed none.

Biological target: D(2) dopamine receptor (Homo sapiens) (UniProt P14416)
Assay: HTS Assay for Allosteric Antagonists of the Human D2 Dopamine Receptor: Primary Screen for Antagonists; note: 0% is about no effect
Conditions: HEK293 TREx D2 cells, calcium flux, dopamine EC80; at 10 µM; stronger effect = higher value
Outline: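 Compounds are added to dye-loaded, induced HEK293 T-REx cells coupled to calcium release via D2; after a 3 min kinetic read an EC80 dopamine stimulus is given and fluorescence is recorded for 3 more min.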

Sequence of UniProt P14416 (P14416 whole entry, looked up): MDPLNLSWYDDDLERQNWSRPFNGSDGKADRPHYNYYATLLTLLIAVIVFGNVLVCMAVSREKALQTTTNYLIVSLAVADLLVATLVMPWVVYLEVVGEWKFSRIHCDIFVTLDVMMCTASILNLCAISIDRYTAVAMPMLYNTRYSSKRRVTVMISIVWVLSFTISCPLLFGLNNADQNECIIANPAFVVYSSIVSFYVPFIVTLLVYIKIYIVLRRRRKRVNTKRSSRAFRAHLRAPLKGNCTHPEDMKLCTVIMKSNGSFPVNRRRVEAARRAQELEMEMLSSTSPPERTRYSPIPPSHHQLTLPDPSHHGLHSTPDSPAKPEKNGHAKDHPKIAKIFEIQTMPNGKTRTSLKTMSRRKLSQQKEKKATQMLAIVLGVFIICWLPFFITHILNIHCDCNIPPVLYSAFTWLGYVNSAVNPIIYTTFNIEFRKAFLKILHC

SMILES | inhibition
Cc1cccc(NC(=O)Cn2nnc(C(=O)Nc3ccc(F)c(Cl)c3)c2N)c1 | -3.15%
COc1ccc(-c2nc(-c3ccncc3)no2)c(OC)c1 | active: 57.8%
COc1cccc(NC(=O)CSc2nc(=O)n(Cc3ccco3)c3c2CCC3)c1 | -17.1%
CCC(CC)c1nn2c(=O)cc(COc3ccc(NC(=O)c4ccc(C)cc4)cc3)nc2s1 | 1.45%
Cc1nn(C(=O)c2ccc(Cl)cc2)c(C)c1S(=O)(=O)N1CCOCC1 | 0.331%
COc1ccc(NC(=O)CC2C(=O)N(c3cccc(C)c3)C(=O)N2Cc2cccnc2)cc1 (configuration not stated) | -1.18%
CCc1ccc(CNC(=O)CN2C(=O)CSc3c2c(C)nn3-c2ccccc2)cc1 | -3.21%
Cc1cn2c(=O)cc(COC(=O)c3cccc(NC(=O)c4ccccc4Cl)c3)nc2s1 | 6.63%
Cc1ccc(CNc2ncnc3c2nnn3C)cc1 | 14.5%
O=C1CC(N2CCC(O)(c3ccc(Cl)cc3)CC2)C(=O)N1 (configuration not stated) | active: 31.3%
CCN(C(=O)COC(=O)/C=C/c1nc2ccccc2s1)C1CCS(=O)(=O)C1 (configuration not stated) | active: 31.7%
C/C(=N\NC(=O)c1c(C)nc2ccccn12)c1ccccc1F | active: 31.5%
O=C(Cn1ncc2c3ccccc3n(Cc3ccc(F)cc3)c2c1=O)NCCC1=CCCCC1 | 9.27%
Cc1ccc(C)c(CN2C(=O)c3ccccc3S(=O)(=O)c3ccc(C(=O)NCCCN4CCCC(C)C4)cc32)c1 (configuration not stated) | -7.69%
COc1ccc(SCCC(=O)NCc2ccncc2)cc1 | active: 32.1%
CSc1ccc(CCNS(=O)(=O)c2ccc3c(c2)C(C)(C)C(=O)N3C)cc1 | 0.451%
CC(C)c1ccc(NC(=O)C(C)N(c2ccccc2)S(C)(=O)=O)cc1 (configuration not stated) | -0.691%
COc1cc2c(cc1O)C(Cc1ccc(O)cc1)NCC2 (configuration not stated) | active: 74.1%
Cc1ccc(C(c2cccc(Br)c2)c2c(C)[nH]c3ccccc23)s1 (configuration not stated) | 3.71%
O=c1c2ccccc2n2c(-c3ccc(Cl)cc3)nnc2n1CCc1ccccc1 | 21%
CCc1ccc(-n2nc(C)c3c(C)cc(=O)n(CC(=O)Nc4ccc(C(C)=O)cc4)c32)cc1 | -1.32%
COCCCNc1nc(NCc2cccc(Cl)c2)c2cnn(C)c2n1 | -4.63%
COc1ccc(-c2nc(CSc3nnc(C)n4c3cc3occc34)c(C)o2)cc1OC | 2.1%
COc1cc(OC)c(NC(=O)N2CC3CCCN3c3ccccc32)cc1Cl (configuration not stated) | -3.52%
CC(C)C(NS(=O)(=O)c1ccc2c(c1)oc(=O)n2C)C(=O)NCCc1ccccc1 (configuration not stated) | -21.6%

SMILES | inhibition
COc1ccc(C2C(C(=O)Nc3cccnc3)=C(C)Nc3nc(-c4ccccc4)nn32)cc1OC (configuration not stated) | -4.35%
O=c1[nH]c(=O)n(C2CCCCC2)c(O)c1C1=Nc2ccccc2SC(c2ccccc2)C1 (configuration not stated) | 13.5%
CN(C)c1ccc(/C=C/c2noc(-c3ccccc3O)n2)cc1 | 12.4%
COc1ccccc1NC(=O)C1=C(C)Nc2nc(SCc3ccccc3Cl)nn2C1c1ccccn1 (configuration not stated) | 12.9%
O=C(NC1CC(=O)N(c2ccccc2)C1)c1ccc(S(=O)(=O)N2CCCCC2)cc1 (configuration not stated) | 24.2%
Oc1c(CN2CCN(c3ccc(F)cc3)CC2)cc(Cl)c2cccnc12 | active: 49.1%
Cc1nn2c(C)c(C(=O)NCc3ccco3)cnc2c1-c1ccccc1 | 0.524%
Cc1nn(C(=O)c2ccc(Cl)cc2)c(C)c1S(=O)(=O)N1CCCCCC1 | 5.81%
Cc1ccc(N2CCn3c2nc2c3c(=O)n(CCCc3ccccc3)c(=O)n2C)cc1C | -13.8%
CCc1ccc(OCC(=O)NNC(=O)c2ccc(NC(=O)C3CC3)cc2)cc1 | active: 30.5%
COc1ccc(-n2nc(C(=O)N3CCCC(C)C3)c3c4ccccc4n(C)c3c2=O)cc1Cl (configuration not stated) | 8.41%
CCOC(=O)c1ccc(NC(=O)CSc2c3c(nc4cc(Cl)ccc24)CCCC3)cc1 | 4.34%
COc1cc(OC)c(NC(=O)CCCn2nc(C)c3c(C)n(-c4ccccc4)nc3c2=O)cc1Cl | 5.58%
CSc1ncc(Cl)c(C(=O)Nc2c(C(=O)Nc3cccc(Cl)c3)oc3ccccc23)n1 | 10%
COc1ccc(CNC(=O)CCCN2C(=O)COc3ccc(C)cc32)cc1 | -1.59%
Cc1ccc(N2CCN(C(=O)c3cnc(N4CCCCC4)c4ccccc34)CC2)c(C)c1 | 0.0828%
COc1cccc(Cn2nnc3c(=O)[nH]c(C4CCN(C(=O)c5ccccc5Cl)CC4)nc32)c1 | -3.67%
CC1=C(C(N)=O)C(c2ccccc2Br)n2ncnc2N1 (configuration not stated) | -22.5%
O=C(NCc1ccccc1Br)c1cnc2sc(N3CCCCCC3)nn2c1=O | 4.88%
Cc1cc(C)c(C)c(OCC(O)CN2CCN(c3ccccn3)CC2)c1 (configuration not stated) | active: 91.6%
CC(C)CCNC(=O)c1cc2cc(S(=O)(=O)N3CCCCC3)ccc2n1C | 7.54%
CN(C)CCN(C(=O)c1ccc(S(=O)(=O)N2CCc3ccccc32)cc1)c1nc2ccc(F)cc2s1 | active: 68.8%
O=C(Nc1ccc(F)c(Cl)c1)N1CC=C(c2c[nH]c3ccccc23)CC1 | -5.93%
O=C(NCCc1ccccc1Cl)c1sc2ncccc2c1-n1cccc1 | -22.6%
CCC(=O)N1c2ccccc2CC1C(=O)NCCc1ccccc1 (configuration not stated) | 0.191%

SMILES | inhibition
COc1ccc2sc(N(Cc3cccnc3)C(=O)c3ccc4c(c3)OCCO4)nc2c1 | 1.56%
COc1ccc(NC(=O)CCOc2ccccc2)c(OC)c1 | active: 35.9%
CCCCN(CC)CCCNC(=O)c1cc2c(=O)[nH]c3ccccc3c2n1C | -7.83%
COc1ccc(NC(=O)CCCSc2nc(-c3ccco3)cc(C(F)(F)F)n2)cc1OC | 9.41%
COC(=O)c1[nH]c2cccc(OC)c2c1NC(=O)CCN1CCN(c2ccccc2F)CC1 | active: 73.6%
COc1cccc(-c2nc(S(=O)(=O)c3ccc(Cl)cc3)c(NCc3ccccc3)o2)c1 | 13.6%
CC(=O)Nc1ccc(NS(=O)(=O)c2c(C(=O)N3CCC(C)CC3)c(C)n(C)c2C)cc1 | -0.133%
COc1cccc(C(=O)Nc2cccc(OCc3cc(=O)n4c5c(sc4n3)CCCC5)c2)c1 | -4.02%
COc1ccc2oc(=O)c(C(=O)NCCc3c(C)[nH]c4ccc(F)cc34)cc2c1 | 6.18%
CCOc1ccc(CCNC(=O)CN2CCN(Cc3ccc(Cl)cc3)C2=O)cc1OCC | 4.85%
COc1cccc(NC(=O)C(=O)NCC(c2ccc3c(c2)OCO3)N2CCN(C)CC2)c1 (configuration not stated) | 9.95%
CCc1ccc(N(CC)C(=O)c2cc3c(=O)oc4ccc(C)cc4c3s2)cc1 | -6.51%
Cc1cccc(C)c1Nc1nn2c(=O)c3cc4c(cc3nc2s1)OCO4 | -9.01%
CCc1ccc(S(=O)(=O)N(C(=O)c2ccncc2)c2ccc3oc(C)c(C(=O)OC)c3c2)cc1 | 5.39%
COc1ccc(CC(=O)N2CCc3cc(OC)c(OC)cc3C2COc2cc(C)cc(C)c2)cc1OC (configuration not stated) | 16%
O=C(Nc1ccc(-n2nncc2-c2ccco2)cc1)c1cccc(F)c1 | active: 42%
Cc1nn(S(=O)(=O)c2ccc(Br)cc2)c(C)c1S(=O)(=O)N1CCCCCC1 | -4.58%
CCOC(=O)c1ccc(N2C(=O)c3n[nH]c(-c4ccco4)c3C2c2ccc(C)cc2)cc1 (configuration not stated) | 10.4%
Cc1cc(C)cc(NC(=O)CCS(=O)(=O)c2cccc3nsnc23)c1 | 6.3%
Cc1ccc(-n2c(=O)cc(N3CCN(c4ccccc4Cl)CC3)[nH]c2=O)cc1 | 16.3%
O=C(Nc1cccc(Cl)c1Cl)c1cc(S(=O)(=O)NCc2ccc3c(c2)OCO3)ccc1F | -2.77%
Brc1ccccc1OCCCCN1CCCCC1 | active: 75.8%
CC(CCc1ccc(O)cc1)NCc1ccc(Cl)cc1Cl (configuration not stated) | active: 57%
CCC1CN(C(=O)N2CCC(C(=O)Nc3ccccc3F)CC2)c2ccccc2O1 (configuration not stated) | -3.98%
CCCC(=O)Nc1ccccc1OCc1cc(=O)n2cc(C)ccc2n1 | -4.68%

SMILES | inhibition
Cc1ccc(CCNC(=O)c2ccc3c(Cl)c4c(nc3c2)CCCC4)cc1 | 7.37%
COc1ccc(NC(=O)CN2C(=O)COc3ccc(S(=O)(=O)N4CCCCCC4)cc32)cc1 | 3.97%
COc1ccccc1CNC(=O)c1ccc2nc(N3CCCCC3)sc2c1 | 28.1%
Cc1ccc(C)c(N2CCN(c3c(CN4CCCC4)c(=O)oc4ccccc34)CC2)c1 | 7.35%
Cn1nnnc1SCCCNCc1cc(Cl)ccc1OCc1ccc(F)cc1 | -28.6%
COC(=O)c1c(NC(=O)c2nc(SCc3ccc(F)cc3)ncc2Cl)sc2c1CCCC2 | -2.33%
COc1ccccc1/C=N/NC(=O)c1ccc(Br)cc1 | active: 71.6%
Cc1nn2c(=O)cc(COC(=O)Cc3ccccc3)nc2s1 | -9.49%
Nc1c(C(=O)Nc2ccc(OC(F)(F)F)cc2)sc2nc(-c3ccncc3)ccc12 | -7.95%
CCOc1ccccc1-c1noc(CSc2nnc(-c3ccccc3)n2-c2ccc(F)cc2)n1 | 8.43%
CCCCSc1nnc2c(n1)OC(c1ccc(Br)s1)N(C(C)=O)c1ccccc1-2 (configuration not stated) | -0.235%
CSc1ccc(CCNC(=O)Cn2ccc3cc(S(=O)(=O)N4CCCCCC4)ccc32)cc1 | -10.5%
Cc1ccc(CN2CCCN(CC(=O)Nc3ccc(C)cc3C)S2(=O)=O)cc1 | -0.875%
Cc1c(C(=O)Nc2ccc(C(=O)O)cc2)nnn1-c1ccccc1 | -3.03%
Cc1c(Cl)cccc1NC(=O)c1ccc2c(c1)CCN2S(=O)(=O)c1ccccc1 | 18.6%
c1ccc(CC2CCN(c3nc4ccccc4n4cnnc34)CC2)cc1 | active: 37.6%
O=C(Nc1nc2n(n1)C(c1ccc(F)cc1)C=C(c1ccccc1)N2)c1ccco1 (configuration not stated) | 3.17%
O=c1c(-c2cc(-c3ccccc3)nc3c2COc2ccc(Cl)cc2-3)coc2ccc(F)cc12 | 8.65%
CN(C)CCNc1ncnc2c1cnn2-c1cccc(Cl)c1 | 3.28%
CN(C)c1ccc(C(CNC(=O)c2ccccc2C(F)(F)F)N2CCOCC2)cc1 (configuration not stated) | -11.4%
CCn1c2ccccc2c2cc(NC(=O)Cc3ccc(S(=O)(=O)N4CCOCC4)s3)ccc21 | active: 36.2%
Cc1ccc(S(=O)(=O)N2CCCc3cc(NS(=O)(=O)c4cc(F)ccc4F)ccc32)cc1 | -9.26%
